Measurements as given in PMC4859805, “Molecular mechanism of activation-triggered subunit exchange in Ca^2+/calmodulin-dependent protein kinase II” (eLife, 2016).
Several values for one entry are separate records, joined by “and”; a condition that tells them apart may be missing. Equal entries are not always repeated.

Assays:
[1] = target: the molecule itself; test: negative-stain electron microscopy; 15 μg/mL CaMKII-α in 20 mM Tris pH 8.0, 150 mM KCl, 5% glycerol; uranyl acetate; 2D class averages, no symmetry imposed
[2] = target: the molecule itself; test: SEC; analytical gel filtration, Superose 6 10/300; elevated injection concentration of 3–5 μM; reinjection of the dodecamer/tetradecamer peak of the holoenzyme; pre-incubation with Mg2+-ATP for the holoenzyme

Protein	stoichiometry N [1]	stoichiometry N [2]
human CaMKII-α holoenzyme, full length, unactivated (enzyme, Ca2+/calmodulin-dependent protein kinase II alpha, human, full length; also called full-length CaMKII-α; source: E. coli Tuner (DE-3) pLysS with λ phosphatase, purified (Ni-NTA, Q-FF, Superose 6); not shown: SUMO, N-terminal, cleaved; copies: 12 or 14) not shown	12 and 14	
human CaMKII-α holoenzyme F397A (enzyme, Ca2+/calmodulin-dependent protein kinase II alpha, human, full length; residue number according to PDB 1HKX; also called F397A holoenzyme; mutant holoenzyme; source: E. coli Tuner (DE-3) pLysS with λ phosphatase, purified; not shown: SUMO, N-terminal, cleaved) not shown		2
